Article PMC10121561, “Control of a hippocampal recurrent excitatory circuit by cannabinoid receptor-interacting protein Gap43” (Nature Communications, 2023)
No constants are given. Whether binding was seen depends on the method and setting. In cells and extracts the contact can be indirect. Some binding calls cover weakened binding; strength is not graded here. One block for each molecule: values may come before it.

Protein sequences, listed by entry. Tags and fused reporters are not part of them.
UniProt P21554: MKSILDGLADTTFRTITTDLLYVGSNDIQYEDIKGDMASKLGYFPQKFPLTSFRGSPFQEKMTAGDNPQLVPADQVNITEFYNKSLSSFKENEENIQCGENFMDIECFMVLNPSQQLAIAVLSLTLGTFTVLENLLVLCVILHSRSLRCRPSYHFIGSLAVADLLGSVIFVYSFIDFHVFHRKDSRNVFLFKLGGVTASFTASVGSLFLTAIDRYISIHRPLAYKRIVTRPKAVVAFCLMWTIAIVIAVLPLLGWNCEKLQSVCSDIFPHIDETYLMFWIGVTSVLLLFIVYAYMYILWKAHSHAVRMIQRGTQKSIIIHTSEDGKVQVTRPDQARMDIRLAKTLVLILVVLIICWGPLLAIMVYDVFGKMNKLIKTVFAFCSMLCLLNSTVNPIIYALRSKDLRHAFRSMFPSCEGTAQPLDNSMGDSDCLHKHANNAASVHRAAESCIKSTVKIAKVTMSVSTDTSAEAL
UniProt P06837: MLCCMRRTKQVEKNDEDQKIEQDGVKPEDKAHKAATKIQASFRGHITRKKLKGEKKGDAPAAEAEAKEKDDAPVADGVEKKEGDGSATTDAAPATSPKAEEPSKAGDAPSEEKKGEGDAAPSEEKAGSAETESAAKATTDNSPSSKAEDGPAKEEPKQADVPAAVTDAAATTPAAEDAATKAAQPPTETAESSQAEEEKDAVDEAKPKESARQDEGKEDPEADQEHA
UniProt P47746: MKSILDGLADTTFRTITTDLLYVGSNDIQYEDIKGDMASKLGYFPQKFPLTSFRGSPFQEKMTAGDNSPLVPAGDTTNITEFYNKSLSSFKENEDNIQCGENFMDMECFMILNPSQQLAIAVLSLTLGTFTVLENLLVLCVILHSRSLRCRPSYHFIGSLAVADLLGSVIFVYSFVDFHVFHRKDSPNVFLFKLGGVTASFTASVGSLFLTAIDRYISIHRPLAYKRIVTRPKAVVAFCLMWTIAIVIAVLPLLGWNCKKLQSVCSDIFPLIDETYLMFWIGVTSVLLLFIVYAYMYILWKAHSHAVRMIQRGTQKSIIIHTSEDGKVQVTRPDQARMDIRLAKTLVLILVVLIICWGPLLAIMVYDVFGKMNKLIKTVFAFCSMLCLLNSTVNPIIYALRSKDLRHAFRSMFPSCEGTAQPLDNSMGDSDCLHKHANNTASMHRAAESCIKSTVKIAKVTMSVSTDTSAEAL

What was measured:
RLuc-tagged CB1R = molecular target: T1, RLuc-tagged CB1R (UniProt P21554 1-472); experiment: FRET or BRET; BRET saturation in live HEK293T cells expressing CB1R-RLuc and increasing amounts of GFP-GAP43 forms; 3 independent experiments
T1 construct: type-1 cannabinoid receptor (CB1R); also called CB1R-RLuc; source: HEK293T, transfected, in live cells

[1] = molecular target: growth-associated protein of 43 kDa (GAP43), endogenous mouse (mouse (endogenous in mouse hippocampus)) (UniProt P06837); experiment: proximity ligation; in situ PLA for CB1R and GAP43 in hippocampal synaptosomes from WT mice, Cnr1-/- mice as control
[2] = molecular target: growth-associated protein of 43 kDa (GAP43), endogenous mouse (mouse (endogenous in mouse hippocampus)) (UniProt P06837); experiment: co-IP; endogenous proteins in primary mouse hippocampal neurons and in mouse whole-hippocampus extracts; IP with anti-GAP43 antibody or control IgG
[3] = molecular target: growth-associated protein of 43 kDa (GAP43), endogenous mouse (mouse (endogenous in mouse hippocampus)) (UniProt P06837); experiment: proximity ligation; PLA in hippocampal sections (DG inner molecular layer) of 3-month-old mice of different Cnr1 genotypes (knockout and rescue lines)
myc-tagged CB1R = myc-tagged CB1R (UniProt P21554); experiment: proximity ligation; PLA with anti-c-myc and anti-GFP antibodies in HEK293T cells transfected with CB1R-myc plus GFP-GAP43 forms; dots per GFP-transfected cell
HA-tagged CB1R = HA-tagged CB1R (UniProt P21554); experiment: co-IP; HEK293T cells co-transfected with HA-CB1R and GAP43 forms; IP with anti-HA antibody, blot with anti-pan-GAP43 antibody

Molecule: GFP-GAP43(S41A) (from UniProt P17677 1-238)
- binding (RLuc-tagged CB1R): no binding

B1: GFP-GAP43(WT) (natural protein, UniProt P17677 1-238, looked up)
chain: MLCCMRRTKQVEKNDDDQKIEQDGIKPEDKAHKAATKIQASFRGHITRKKLKGEKKDDVQAAEAEANKKDEAPVADGVEKKGEGTTTAEAAPATGSKPDEPGKAGETPSEEKKGEGDAATEQAAPQAPASSEEKAGSAETESATKASTDNSPSSKAEDAPAKEEPKQADVPAAVTAAAATTPAAEDAAAKATAQPPTETGESSQAEENIEAVDETKPKESARQDEGKEEEPEADQEHA
notes: growth-associated protein of 43 kDa (GAP43), wild type; In the co-IP and DMR experiments the text writes GAP43(WT) without GFP; source: HEK293T, transfected, in cells or lysate
- binding (myc-tagged CB1R): binds

Next, values leading:

- binding [1]: binds
- binding [2]: binds
- binding [3]: binds
Molecule: type-1 cannabinoid receptor (CB1R), endogenous mouse (from UniProt P47746 1-473)

- binding (HA-tagged CB1R): binds
- binding (myc-tagged CB1R): binds
B2: GFP-GAP43(S41D) (natural protein, UniProt P17677 1-238, looked up)
chain: MLCCMRRTKQVEKNDDDQKIEQDGIKPEDKAHKAATKIQADFRGHITRKKLKGEKKDDVQAAEAEANKKDEAPVADGVEKKGEGTTTAEAAPATGSKPDEPGKAGETPSEEKKGEGDAATEQAAPQAPASSEEKAGSAETESATKASTDNSPSSKAEDAPAKEEPKQADVPAAVTAAAATTPAAEDAAAKATAQPPTETGESSQAEENIEAVDETKPKESARQDEGKEEEPEADQEHA
notes: growth-associated protein of 43 kDa (GAP43) with the phospho-mimetic point mutation S41D; In the co-IP and DMR experiments the text writes GAP43(S41D) without GFP; also called phospho-mimetic GAP43; source: HEK293T, transfected, in cells or lysate
